Laboratory results as given in the antibiotic and cytotoxicity screens of Wong et al. (2023).
Some of the results follow.

The molecules below were run on HepG2 (assay: cytotoxicity call (relative viability < 0.9)). Settings: 10 µM.

SMILES | cytotoxicity call
CC(=O)N1CSC[C@H]1C(=O)O | inactive
CO[C@@H](CN(C)C(=O)c1ccc2c(c1)OCO2)[C@@H](C)CN([C@H](C)CO)S(=O)(=O)c1ccc(F)cc1 | inactive
O=C(C[C@H]1C[C@H]2c3cc(NC(=O)Cc4ccncc4)ccc3O[C@H]2[C@H](CO)O1)NCc1cc(F)ccc1F | inactive
C[C@@H]1CN([C@@H](C)CO)C(=O)CCCn2cc(nn2)CO[C@H]1CN(C)C(=O)Nc1ccnc(N2CCOCC2)c1 | inactive
C[C@@H]1CN([C@@H](C)CO)C(=O)c2cccc(NC(=O)Nc3ccc(F)cc3)c2O[C@H]1CN(C)Cc1ccc(C(=O)Nc2ccccc2N)cc1 | inactive
Cc1ccc(S(=O)(=O)Nc2ccc3c(c2)C(=O)N([C@@H](C)CO)C[C@H](C)[C@@H](CN(C)Cc2ccncc2)OCCCC[C@@H](C)O3)cc1 | inactive
Cc1ccc(S(=O)(=O)N(C)C[C@H]2Oc3ccc(NC(=O)NC(C)C)cc3CC(=O)N([C@@H](C)CO)C[C@H]2C)cc1 | inactive
CC(O)CN(CCN(CC(C)O)CC(C)O)CC(C)O (stereo not given) | inactive
C[C@H](CO)N1C[C@H](C)[C@@H](CN(C)C(=O)Nc2ccc3c(c2)OCO3)Oc2ccc(NC(=O)Nc3cccc4ccccc34)cc2CC1=O | inactive
COc1ccc(CNS(=O)(=O)N(C)C)cc1 | inactive
CC=Cc1ccc(OC)cc1 | active
Cc1noc(C)c1NC(=O)N(C)C[C@@H]1Oc2ccc(NS(=O)(=O)c3c(C)noc3C)cc2C(=O)N([C@H](C)CO)C[C@H]1C | inactive
C[C@H](CO)N1C[C@H](C)[C@H](CN(C)S(C)(=O)=O)Oc2ccc(NC(=O)Nc3ccc4c(c3)OCO4)cc2C1=O | inactive
C[C@H](CO)N1C[C@H](C)[C@@H](CN(C)S(=O)(=O)c2cn(C)cn2)Oc2ccc(NC(=O)NC3CCCCC3)cc2C1=O | inactive
CN1C(=O)c2cc(NC(=O)c3cnccn3)ccc2OC[C@@H]2O[C@@H](CC(=O)N[C@H]3CCN(Cc4ccccc4)C3)CC[C@H]21 | inactive
O=S(=O)(c1ccccc1)N1CCN(CCO)CC1 | inactive
C[C@@H]1CCCCO[C@H](CN(C)Cc2ccc(Cl)c(Cl)c2)[C@@H](C)CN([C@H](C)CO)C(=O)c2cc(NC(=O)Nc3ccc4c(c3)OCO4)ccc2O1 | active
C[C@@H]1CN([C@@H](C)CO)S(=O)(=O)c2ccc(C#CC3CCCC3)cc2O[C@@H]1CN(C)Cc1cncnc1 | inactive
C[C@@H]1CCCCO[C@@H](CN(C)Cc2ccc(C(=O)O)cc2)[C@H](C)CN([C@@H](C)CO)C(=O)c2cc(NC(=O)Nc3ccccc3)ccc2O1 | inactive
CC(C)CC#Cc1ccc2c(c1)O[C@H](CN(C)C(=O)c1ccccn1)[C@@H](C)CN([C@@H](C)CO)S2(=O)=O | inactive

SMILES | cytotoxicity call
c1cc(CN2CCCNCCNCCCNCC2)ccc1CN1CCCNCCNCCCNCC1 | inactive
C[C@@H]1CCCCO[C@@H](CN(C)C(=O)Nc2cccc3ccccc23)[C@@H](C)CN([C@@H](C)CO)C(=O)c2cc(NC(=O)Nc3ccc(C(F)(F)F)cc3)ccc2O1 | inactive
C[C@@H]1CCCCO[C@@H](CN(C)S(=O)(=O)c2ccc(F)cc2)[C@@H](C)CN([C@@H](C)CO)C(=O)c2cc(NS(C)(=O)=O)ccc2O1 | inactive
COc1ccc(S(=O)(=O)Nc2ccc3c(c2)C(=O)N([C@@H](C)CO)C[C@H](C)[C@@H](CN(C)Cc2ccc4c(c2)OCO4)OCCCC[C@@H](C)O3)cc1 | inactive
N[C@H](C(=O)O)[C@@H](OCc1ccccc1)C(=O)O | inactive
C#CC1(O)CCC2C3CCc4cc(O)ccc4C3CCC21C (stereo not given) | active
Cc1noc(C)c1S(=O)(=O)N(C)C[C@H]1Oc2ccc(NS(=O)(=O)c3cn(C)cn3)cc2C(=O)N([C@@H](C)CO)C[C@H]1C | inactive
CCCCCCCC/C=C\CCCCCCCC(=O)O | inactive
NC(=O)c1cc2ccccc2oc1=O | inactive
C[C@@H]1CN([C@H](C)CO)C(=O)Cc2cc(NC(=O)Cc3ccccc3)ccc2O[C@@H]1CN(C)C(=O)Nc1cccc2ccccc12 | inactive
COC(=O)[C@H]1[C@H](C(=O)O)[C@@]2(C(=O)Nc3ccc(C#Cc4ccc(OC)cc4)cc32)[C@@H](c2ccccc2)N1C | inactive
O=C(O)CCN1CCCCCC1=O | inactive
C[C@@H]1CN([C@H](C)CO)C(=O)c2cc(C#CCN(C)C)cnc2O[C@H]1CN(C)S(C)(=O)=O | inactive
C[C@H](CO)N1C[C@H](C)[C@H](CN(C)C(=O)Nc2ccc(F)cc2)OCCCC[C@H](C)Oc2ccc(NC(=O)CCC(F)(F)F)cc2C1=O | inactive
CCc1cccc(C(C)C)c1NC(=O)Nc1ccccc1 | inactive
Cc1noc(C)c1S(=O)(=O)N(C)C[C@@H]1Oc2c(NS(C)(=O)=O)cccc2C(=O)N([C@@H](C)CO)C[C@H]1C | inactive
COc1ccc(S(=O)(=O)N(C)C[C@@H]2Oc3c(NC(=O)c4ccncc4)cccc3C(=O)N([C@@H](C)CO)C[C@H]2C)cc1 | inactive
C[C@@H]1CCCCO[C@H](CN(C)C(=O)NC2CCCCC2)[C@@H](C)CN([C@H](C)CO)C(=O)c2cc(NC(=O)C3CCCCC3)ccc2O1 | inactive
C[C@@H]1CN([C@@H](C)CO)C(=O)c2cccc(NC(=O)c3ccncc3)c2O[C@@H]1CN(C)Cc1ccc2c(c1)OCO2 | inactive
C[C@H](NC(=O)C[C@@H]1CC[C@H](NC(=O)CN2CCOCC2)[C@@H](CO)O1)c1ccccc1 | inactive
